# Measurements from article PMC4336329 (PLoS ONE, 2015).
# In all, about 310,000 compounds went through this assay and about 14,000 (4.5%) showed an effect of 50% or more. Effects have a minus sign here. Some of the results follow.
# Biological target: human ether-à-go-go-related gene (hERG) potassium channel (human, UniProt Q12809)
# Assay: primary screen, population patch clamp on CHO cells stably expressing hERG
# 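Also: peak tail current of the secondary pulse compared with the same well before compound.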
# Sequence of human ether-à-go-go-related gene (hERG) potassium channel (Q12809 whole entry, looked up): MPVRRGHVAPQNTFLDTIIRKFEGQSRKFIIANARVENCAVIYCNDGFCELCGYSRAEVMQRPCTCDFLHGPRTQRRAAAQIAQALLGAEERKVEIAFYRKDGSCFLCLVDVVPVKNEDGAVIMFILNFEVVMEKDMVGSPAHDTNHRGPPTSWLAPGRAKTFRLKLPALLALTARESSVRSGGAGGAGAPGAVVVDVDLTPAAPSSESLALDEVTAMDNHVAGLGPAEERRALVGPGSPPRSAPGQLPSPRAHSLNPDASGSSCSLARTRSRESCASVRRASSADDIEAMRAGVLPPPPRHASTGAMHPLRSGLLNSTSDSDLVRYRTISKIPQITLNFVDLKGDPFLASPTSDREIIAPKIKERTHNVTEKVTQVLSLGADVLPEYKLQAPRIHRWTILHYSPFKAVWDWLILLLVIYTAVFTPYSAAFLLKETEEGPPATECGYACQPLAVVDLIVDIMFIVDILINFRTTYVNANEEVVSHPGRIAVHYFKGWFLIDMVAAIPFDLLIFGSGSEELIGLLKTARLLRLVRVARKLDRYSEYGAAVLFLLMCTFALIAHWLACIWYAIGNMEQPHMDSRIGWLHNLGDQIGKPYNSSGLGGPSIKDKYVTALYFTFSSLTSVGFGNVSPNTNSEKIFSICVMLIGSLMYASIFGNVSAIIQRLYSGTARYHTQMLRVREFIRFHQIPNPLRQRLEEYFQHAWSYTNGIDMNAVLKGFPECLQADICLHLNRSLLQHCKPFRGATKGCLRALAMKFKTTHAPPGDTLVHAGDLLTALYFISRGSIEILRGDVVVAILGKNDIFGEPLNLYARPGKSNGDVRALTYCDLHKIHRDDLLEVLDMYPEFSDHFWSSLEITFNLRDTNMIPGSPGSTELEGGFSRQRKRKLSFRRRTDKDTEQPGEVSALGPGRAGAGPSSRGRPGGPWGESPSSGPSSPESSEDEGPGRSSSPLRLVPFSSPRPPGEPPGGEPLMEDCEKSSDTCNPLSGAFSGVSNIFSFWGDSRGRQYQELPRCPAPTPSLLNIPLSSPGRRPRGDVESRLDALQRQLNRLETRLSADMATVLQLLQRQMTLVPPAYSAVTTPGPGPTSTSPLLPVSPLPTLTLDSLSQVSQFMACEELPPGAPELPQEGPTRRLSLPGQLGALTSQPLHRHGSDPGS
row,Structure (SMILES),"hERG current change (%, negative = inhibition) at 10uM"
1,Cc1cc(C)c(NC(=O)CCCC(=O)O)c(Cl)c1,12%
2,COC(=O)c1ccc(CO/N=C2\CCCc3nonc32)cc1,-35.1%
3,CCOc1ccccc1N(CC(=O)NCCSCc1ccco1)S(=O)(=O)c1ccccc1,1.71%
4,Cc1ccc2nsnc2c1S(=O)(=O)Nc1cccc2nsnc12,-0.692%
5,CNc1cc(N2CCCC2)ccc1[N+](=O)[O-],-2.72%
6,Cl.OC(CNCC1COc2ccccc2O1)COc1ccc(Cl)cc1 (stereo not drawn),-56.2%
7,Cn1c(CC(=O)NC(C)(C)CO)c(Sc2ccccc2)c2ccccc21,-37.8%
8,COCCCNCC(O)COc1cccc2[nH]c(C)cc12 (stereo not drawn),10%
9,Cc1cc([N+](=O)[O-])cc2c1NC(=O)C2(O)N1CCOCC1 (stereo not drawn),6.67%
10,CCOC(=O)c1[nH]c2ccc(OC)cc2c1NC(=O)CCN1CCc2ccccc2C1,-59.5%
11,COc1ccc(CCNC(=O)c2ccco2)cc1OC,2.1%
12,CC1(C)Cc2c(c(N3CCOCC3)nc3sc4c(=O)[nH]cnc4c23)CS1,4.52%
13,Cc1ccc(C(=O)N/N=C/c2ccc(-c3ccc(Br)cc3[N+](=O)[O-])o2)o1,-9.13%
14,CCOC(=O)CNS(=O)(=O)c1ccc(C)cc1,3.8%
15,CC(C)(C)C(=O)Nc1ccc(N2CCCC2)cc1,-8.68%
16,COc1ccc(Cl)cc1NC(=O)c1cc(-c2ccc(C)cc2O)n[nH]1,15.9%
17,CCN(CC)S(=O)(=O)c1ccc(N(C)Cc2cccnc2)nc1,-15.2%
18,COc1ccc(OC)c(NC(=O)COC(=O)c2ccc(-n3cnnn3)cc2)c1,-12.5%
19,CCN(CC(=O)NCc1ccc(Cl)cc1)C(=O)CSc1cc(C)ccc1C,-47.5%
20,COCCNC(=S)N(CCc1c(C)[nH]c2ccc(F)cc12)Cc1cccnc1,-21.5%
21,O=C(COc1ccccc1)Nc1ccccc1N1CCN(c2ccccc2)CC1,1.02%
22,Nc1nc(SCC(=O)NC2CCCCC2)n[nH]1,11.1%
23,Cc1cc(C(=O)OCC(=O)Nc2cccc(S(=O)(=O)N(C)C)c2)c2ccccc2n1,-9.8%

row,Structure (SMILES),"hERG current change (%, negative = inhibition) at 10uM"
1,CCOC(=O)CSc1nnc(NC(=O)c2cccc([N+](=O)[O-])c2)s1,-1.68%
2,CCOc1ccc(Br)c(C2(O)CC(C)N(C)CC2C)c1 (stereo not drawn),-10.5%
3,COc1ccc(N2C(=O)CC(=O)NC2=O)cc1,-11.3%
4,CN1CCN(CC(=O)Nc2c(C#N)cnn2-c2ccccc2)CC1,12.1%
5,COc1ccc(N2CCN(c3ccc(N4C(=O)COCC4=O)cc3[N+](=O)[O-])CC2)cc1,-11.1%
6,COc1ccccc1Cc1nc2ccccc2n1S(=O)(=O)c1ccc(Cl)cc1,13.4%
7,COc1ccc(NC(=O)COC(=O)c2ccc(N3CCCC3=O)cc2)cc1OC,14.1%
8,CC1C(=O)Nc2ccc(S(=O)(=O)Nc3ccccc3Br)cc2NC1=O (stereo not drawn),-5.66%
9,CC(C)n1nc(C(=O)Nc2cccc(S(=O)(=O)NCc3ccco3)c2)c2ccccc2c1=O,-16.7%
10,CN(CC(=O)NC(=O)NC1CCCCC1)CC(=O)Nc1ccc(Cl)cc1,-32.1%
11,O=C(Nc1cccc([N+](=O)[O-])c1)Nc1cnccn1,20.9%
12,O=C(CCNC(=O)N1CC(=O)Nc2ccccc21)NCCc1cccc(F)c1,16.3%
13,COC(=O)c1ccc(NC(=S)N2CCC(C(N)=O)CC2)cc1,12.2%
14,CCC(CC)NC(=O)c1cc(OC)c(OC)cc1[N+](=O)[O-],26.5%
15,Cc1cccc2cc(COC(=O)c3ccco3)c(=O)[nH]c12,1.12%
16,O=C(Nc1nc2c(s1)CCCC2)c1cc(-c2ccncc2)nc2ccccc12,-4.4%
17,COc1ccc(Cl)cc1NC(=O)c1nnn(CC(=O)Nc2ccc(C)c(C)c2)c1N,9.23%
18,COc1ccc(OC)c(CC(NC(C)=O)C(=O)NC2CCN(c3nnnn3-c3ccccc3)CC2)c1 (stereo not drawn),2.08%
19,Cc1cc(C(=O)CSc2nc(N)cc(N)n2)c(C)n1-c1cccc(F)c1,-14.2%
20,CCCC#Cc1ccc2c(c1)COc1c3ccccc3nn1-2,7.29%
21,COc1ccc(NC(=O)CN2C(=O)NC3(CCCC3)C2=O)c(OC)c1,24.1%
22,CCc1nc(CNC(=O)C2CCC(=O)N(CCc3ccc(OC)cc3)C2)cs1 (stereo not drawn),7.97%
23,COc1cc(NC(=O)C(C)Oc2ccccc2)ccc1NC(=O)COc1ccccc1 (stereo not drawn),0.7%

row,Structure (SMILES),"hERG current change (%, negative = inhibition) at 10uM"
1,CCOC(=O)C1=C(COC(=O)/C=C/c2ccc(Cl)cc2)NC(=O)NC1C (stereo not drawn),18.5%
2,Cl.O=C(CN1CCN(C(=O)c2cccc(F)c2)CC1)NC1CCCCC1,2.39%
3,Cc1nn(C)c(C(=O)NC(=S)Nc2ccccc2O)c1Cl,-1.79%
4,Cc1ccc(NC(=O)C(=O)NCCN2CCN(C(=S)Nc3ccccc3)CC2)cc1,-19.1%
5,N#Cc1ccc(NC(=O)CN2CCCC2)cc1Cl,0.986%
6,CC(=O)c1cccc(NC(=O)C(NC(C)C)c2ccccc2)c1 (stereo not drawn),10.5%
7,Cc1cccc(C)c1OCC1CNC(=O)O1 (stereo not drawn),0.573%
8,COc1cc(NC(=O)CN2C(=O)C(c3ccccc3)=NC2(C)C)cc(OC)c1,7.18%
9,O/N=C1\CCSc2ccc(F)cc21,-6.52%
10,CCCc1nnc(SCC(=O)N2CCCCC2)n1CC1CCCO1 (stereo not drawn),-0.393%
11,O=C(c1cc(-c2ccc(Cl)cc2)on1)N1CCOCC1,-0.136%
12,C/C(CC(=O)Nc1ccc2c(c1)OCCO2)=N\NC(=O)COc1ccccc1,-9.15%
13,CC(NC(=O)c1noc2c1CCCCC2)c1ccccc1 (stereo not drawn),-30.4%
14,O=C(N/N=C/c1cccs1)c1[nH]ncc1Br,13.8%
15,Cc1cccc(NC(=O)CNC(=O)c2ccc3c(c2)OCO3)n1,4.92%
16,Cc1ccc(-c2nnn(CC(=O)N(CC3CCCO3)C(C(=O)NCC3CCCO3)c3ccc(F)cc3)n2)o1 (stereo not drawn),11.3%
17,Br.Nc1nc(-c2ccccc2)c(N=Nc2ccccc2Cl)s1,5.41%
18,CCCSc1nsc(NC(=O)c2cccnc2OCC)n1,6.12%
19,Clc1ccccc1OCc1nn2c(-c3ccncc3)nnc2s1,-30.5%
20,CN(Cc1ccccc1)C(=O)CCc1ccccc1,-4.6%
21,COC(=O)C1=C(c2cccc(C#N)c2)C[C@@H]2CC[C@H]1N2C(=O)NCc1cc(C)oc1C(F)(F)F,-22.4%
22,CCCc1nc2c(C)cc(C)cc2c(N)c1CC,-59.2%
23,CCc1c(O)nc(SCC(=O)Nc2ccccc2C)n(-c2ccc(C)cc2)c1=O,8.37%

row,Structure (SMILES),"hERG current change (%, negative = inhibition) at 10uM"
1,CC1CN(C(=O)Cn2cc(SCC(=O)N3CCOCC3)c3ccccc32)CC(C)O1 (stereo not drawn),15.9%
2,CCOC(=O)C1=C(COC(=O)COc2ccc(C#N)cc2)NC(=O)NC1C (stereo not drawn),-7.13%
3,COc1cccc(Nc2ncc(C#N)c(N)n2)c1,-4.54%
4,Cc1ccc(CNC(=O)CN2C(=O)COc3ccc(S(=O)(=O)N4CCC(C)CC4)cc32)o1,-8.24%
5,COc1ccccc1CCC(=O)OCC(=O)N1CCN(S(=O)(=O)c2ccc(C)cc2C)CC1,-8.16%
6,COC(=O)CCC(=O)OC1(C)C(=O)C=C2C=C(C3CC3)N(c3cccc(C#N)c3)C=C2C1=O (stereo not drawn),3.34%
7,Cc1nn(Cc2ccccc2Cl)c(C)c1NC(=O)c1cc(-c2ccc(F)cc2)on1,-3.46%
8,CC12CCC(=O)N1C(C(=O)Nc1ccccc1F)CS2 (stereo not drawn),-5.81%
9,CN(C)C1=NCCN1CC1CCCCCC1,-3.28%
10,Nc1ccc2c(c1)Nc1ccccc1CC2,14.7%
11,O=C(NCCC1CCCCN1S(=O)(=O)c1ccc(Cl)cc1)C(=O)NCc1ccncc1 (stereo not drawn),-39.6%
12,C=C(C)Cn1c(=O)n(CC2CS2)c2ccccc21 (stereo not drawn),-1.02%
13,Cc1ccc(C)c(NC(=O)CSc2nnc(CNC(=O)c3ccco3)o2)c1,0.875%
14,CC(=O)N/C(=C\c1ccccc1)C(=O)OCC(=O)NC1CCCC1,-2.42%
15,Cc1nc2ccc(C(=O)O)cc2[nH]1,15.6%
16,O=C(N/N=C/c1ccc([N+](=O)[O-])cc1)c1c[nH]c2ccccc12,19.1%
17,CN1CCN(c2ccc(Cl)cc2NC(=O)CCN2C(=O)c3ccccc3C2=O)CC1,-7.06%
18,COc1ccc(CCN2C(=O)C(Oc3ccccc3C)C2c2ccc3c(c2)OCO3)cc1OC (stereo not drawn),6.21%
19,CCN(c1ccccc1)S(=O)(=O)c1ccc(OCC(=O)Nc2cc(C)on2)cc1,-7.31%
20,Cc1ccc(-n2c(=O)c3sccc3n(CC(=O)NC3CCCCC3)c2=O)cc1,9.86%
21,Cc1noc(/C=C/N(C)C)c1S(=O)(=O)N1CCCC(C(=O)NC2CCCCC2C)C1 (stereo not drawn),-25.5%
